From patent publication US5877019A, “Animal 2-5A-dependent RNases and encoding sequences therefor” (Cleveland Clinic Foundation, priority 1996, dated 1999)
Like-named read-outs stand apart in the source and are kept apart here.

Legend:
[1] = test system: murine 2-5A-dependent RNase; test: UV covalent crosslinking of 32P-2-5A probe in presence of unlabeled oligonucleotide competitors; format: binding; details: probe 2.4 nM; both truncated recombinant (ZB1) and naturally occurring L cell protein
Procedure: FIG. 2A is a specific affinity of truncated murine 2-5A-dependent RNase for 2-5A. UV covalent crosslinking of the ^32 P-2-5A probe (lanes 1-7) to protein is performed after translation reactions in wheat germ extract (5 μl) with murine 2-5A-dependent RNase mRNA (from clone ZB1) (lanes 1-3) or without added RNA (lane 4) or in extract of interferon treated mouse L cells (100 μg of protein) (lanes 5-7). Reactions are without added competitor (lanes 1, 4, and 5) or in the presence of either trimer core. […] Lanes 8 and 9 are produced by incubating the wheat germ extract with ^35 S-methionine in the absence or presence of 2-5A-dependent RNase mRNA, respectively.
Autoradiograms of the dried SDS/10% polyacrylamide gels are shown. Concentrations of the oligonucleotide competitors are indicated. I is inosine.
The synthesis of the 2-5A probe, p(A2'p)2 (br^8 A2'p)2 A[32P]Cp, and its crosslinking to 2-5A-dependent RNase is performed exactly as described. See Nolan-Sorden, N. L. et al., Anal. Biochem., 184:298-304 (1990). Briefly, the 2-5A probe, about 0.7 to 2.5 nM at […], is incubated for about one hour on ice with cell extract prepared as described, Silverman, R. H. and Krause, D., I.R.L. Press, Oxford. England, pp. 149-193 (1987), in the absence or presence of unlabeled oligonucleotide competitors. […]

[2] = test system: human 2-5A-dependent RNase; details: purified enzyme, poly(rU) substrate
[3] = test system: 2-5A-dependent RNase; details: relative to the 5'-phosphorylated 2-5A species; cited from earlier work

Row | Substance | concentration of competitor that prevents 2-5A probe binding [1] [µM] | activation of 2-5A-dependent RNase (in words) ([2]; listed as ppp5'A2'p5'A) | activation of 2-5A-dependent RNase (in words) [2] | loss/decrease of 2-5A-dependent RNase binding [3]
1 | p3 A2'pA | > 10 | lack of activation ability |  | 
2 | pppA(3'p5'A)2 |  |  | without activity | 10,000 fold
